Measurements: publication PMC6919601, “Identification of Plasmodium dipeptidyl aminopeptidase allosteric inhibitors by high throughput screening” (PLoS ONE, 2019)
Hit rate of the full screen: of about 110,000 compounds, about 230 (0.21%) showed an effect of 50% or more. The list shows a part of the results.

Molecular target: DPAP1 (Plasmodium falciparum, UniProt Q8IIJ9)
Test: primary screen, percent inhibition; read by cleavage of a fluorogenic dipeptide substrate; higher = more effect of the substance
Design: species or system P. falciparum D10 trophozoite lysates; single well
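Further: 30 min substrate incubation versus DMSO and 10 µM JCP410 controls.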

Sequence of DPAP1 (Q8IIJ9 whole entry, looked up): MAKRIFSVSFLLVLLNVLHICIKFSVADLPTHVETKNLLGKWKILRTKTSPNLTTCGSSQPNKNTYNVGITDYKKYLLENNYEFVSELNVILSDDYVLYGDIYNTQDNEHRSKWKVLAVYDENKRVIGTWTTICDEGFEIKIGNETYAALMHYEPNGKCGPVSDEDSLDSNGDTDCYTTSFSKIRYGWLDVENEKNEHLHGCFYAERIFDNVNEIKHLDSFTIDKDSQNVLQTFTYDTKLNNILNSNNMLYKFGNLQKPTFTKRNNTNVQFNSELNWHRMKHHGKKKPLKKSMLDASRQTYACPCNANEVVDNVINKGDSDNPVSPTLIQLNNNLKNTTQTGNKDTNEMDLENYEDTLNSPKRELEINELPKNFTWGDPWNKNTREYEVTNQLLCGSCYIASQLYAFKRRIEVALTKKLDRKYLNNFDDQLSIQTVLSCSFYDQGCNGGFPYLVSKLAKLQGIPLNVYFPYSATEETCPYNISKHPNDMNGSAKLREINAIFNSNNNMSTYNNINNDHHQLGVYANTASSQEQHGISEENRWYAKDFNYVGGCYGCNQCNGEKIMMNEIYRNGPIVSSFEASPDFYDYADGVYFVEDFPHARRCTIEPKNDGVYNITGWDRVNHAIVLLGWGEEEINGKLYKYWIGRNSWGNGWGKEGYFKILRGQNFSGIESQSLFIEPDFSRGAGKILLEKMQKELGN

SMILES | % Inhibition @ 10 uM [%]
CC1CN(C(=O)COc2ccc(Cl)cc2)C(C)CN1C(=O)COc1ccc(Cl)cc1 (centres unmarked) | 7.16
O=C(c1ccc2nc(-c3ccccc3)c(-c3ccccc3)nc2c1)N1CCN(C(=O)c2ccco2)CC1 | 6.71
Cc1ccc(OCC(=O)NCc2nc(-c3ccc(Cl)cc3)no2)cc1 | 0.486
COC(=O)c1sccc1NC(=O)CSc1nnnn1-c1ccc2c(c1)OCO2 | -0.403
CC(C)c1ccc(NC(=O)c2cnn(C)c2)cc1 | -0.00273
Cc1ccc(NC(=O)c2ccc(Cn3cc(Br)cn3)o2)cc1 | -5.49
COC(=O)C1=C(C)n2cnnc2NC1c1ccc(Cl)cc1 (centres unmarked) | -5
CCc1ccc(-n2c(C)cc(/C=C3/C(=N)N4OC(C)=CC4=NC3=O)c2C)cc1 | -5.1
OB1Oc2ccccc2-c2ccccc21 | -7.23
CCOc1ccc2c(c1)C(C)=CC(C)(C)N2CN1C(=O)c2ccccc2C1=O | -0.693
CCc1nc2ccccc2c(C(=O)Nc2ccc(F)cc2)c1C | -4.01
O=C1N/C(=C/c2ccco2)C(=O)N1c1ccc(Cl)cc1 | 4.25
COCCN1C(=O)c2ccccc2C(C(=O)N2CCC(C)CC2)C1c1cn(C)c2ccccc12 (centres unmarked) | 2.42
Cc1ccc(-n2nc3c(=O)n(CCCC(=O)NCCN(C)C)nc(C)c3c2C)cc1 | -2.12
O=C(c1ccc(COc2ccc(Br)cc2)o1)N1N=C(C(F)F)CC1(O)C(F)F (centres unmarked) | 0.709
COc1ccccc1CN1CCN(Cc2cccc(F)c2)CC1 | 4.49
O=C1Cc2cc3c(cc2CCN1Cc1ccccc1)OCO3 | 2.79
Cc1ccc(OCc2nc(-c3ccc(Br)cc3)no2)cc1 | 1.64
O=S(=O)(c1ccccc1)c1nc(-c2cccs2)oc1N1CCOCC1 | 0.032
CC1=C(C(=O)Nc2ccc(Br)cc2)C(c2ccc(Cl)cc2Cl)NC(=O)N1 (centres unmarked) | 1.28
COc1ccc(Cl)cc1-c1nc(-c2ccc(-n3cccc3)cc2)no1 | 2.99
COc1cc(OC)c(OC)cc1/C=C1\SC(N)=NC1=O | 13.6
Cc1ccc(S(=O)(=O)N(CC(=O)Nc2ccc3c(c2)OCO3)c2ccccc2Cl)cc1 | 7.01
C=CCn1c(SCC(=O)NCc2ccc(C(=O)OCC)o2)nc2c1c(=O)n(C)c(=O)n2C | -6.25
CSc1ncc(CC(=O)O)c(Sc2ccc(Cl)cc2)n1 | -9.24

SMILES | % Inhibition @ 10 uM [%]
Cc1c(NC(=O)Cc2ccccc2)c(=O)n(-c2ccccc2)n1C | -6.44
CCN(C(=O)CN1C(=O)C2CCCCC2C1=O)c1nnc(-c2ccc(Cl)cc2)s1 (centres unmarked) | 1.63
O=C1c2cccc3c(Br)ccc(c23)C(=O)N1CCO | 3.32
Cc1noc2ncn(CC(=O)NCC3CCCO3)c(=O)c12 (centres unmarked) | -4.4
O=C1c2ccccc2C(Nc2cccnc2)N1Cc1ccc2c(c1)OCO2 (centres unmarked) | -4.69
O=C(COc1ccc(F)cc1)N1c2ccccc2Sc2ccccc21 | 3.64
CCOC(=O)c1c(NC(=O)/C=C/C(=O)O)sc2c1CCCC2 | 0.716
COc1ccc(NC(=O)CN(c2ccc(F)cc2)S(=O)(=O)c2ccc(C)cc2)cc1 | -1.61
COc1ccc(OC)c(-c2[nH]nc3c2C(c2cccnc2)C(C#N)=C(N)O3)c1 (centres unmarked) | 2.23
CCc1[nH]nc2c1C(c1ccccc1)C(C#N)=C(N)O2 (centres unmarked) | -1.64
O=C(/C=C/c1ccccc1O)c1ccco1 | -0.339
CC[N+]1=C(/C=C/c2ccc(OC)cc2)C(C)(C)c2ccc(C(=O)OC)cc21 | -4.78
N#CC1(NC(=O)[C@H](Cc2c(F)cccc2F)NC(=O)c2ccc(-c3ccccc3Cl)cc2)CCS(=O)(=O)CC1 | -5.2
CC(=O)Nc1cc2ccccc2cc1NC(C)=O | 0.658
Cc1ccccc1OCC(=O)Nc1nc(-c2ccc(S(=O)(=O)N3CCOCC3)cc2)cs1 | -6.4
COc1ccc(NC(=O)CN(c2cccc(Br)c2)S(C)(=O)=O)c(OC)c1 | -8.37
CCOC(=O)c1[nH]c(C)c(C(=O)NCc2ccc(Cl)cc2)c1C | -1.66
Clc1ccc(CN2CCc3c([nH]c4ccccc34)C2)cc1Cl | -4.94
CCC(C)NC(=O)C(Cc1ccc([N+](=O)[O-])cc1)N1C(=O)c2ccccc2C1=O (centres unmarked) | -6.11
Cc1ccc2oc(=O)c3cnn(CC(=O)Nc4cccnc4)c3c2c1 | 4.74
CCN(CC)CCn1cnc2ccccc21 | 0.177
Cn1c(NC(=O)Nc2cccc(C(F)(F)F)c2)cc(=O)n(C)c1=O | -0.984
CC(NC(=O)CCc1nc2ccccc2[nH]1)c1ccccc1 (centres unmarked) | 4.58
CC[C@@H](C[C@H](NC(=O)OCc1ccccc1)C(=O)NCC#N)c1ccccc1 | -8.36
CCOC(=O)N1CCN(C(=O)c2ccc(C(C)(C)C)cc2)CC1 | -6.68
